# Assay results from the supplement of paper PMC10441789.
# Some of the results follow. Antibody binding of pooled human sera (four to six donors per pool; dilution not stated) to peptides of the Trypanosoma cruzi antigen TSSA on microarrays. Quantile-normalised fluorescence in arbitrary units, mean of duplicate arrays; higher = more binding. No active / inactive call. The uninfected pools are read here as the healthy donors of the same country. The strongest signals lie near the top of the scale (about 60,000).
# Columns and labels:
# Assay in all cases: antibody binding signal (normalised fluorescence) (arbitrary fluorescence units); higher = stronger serum antibody binding to peptide
# [1] = test system: pooled sera of chronic Chagas disease patients, Argentina
# Description: (§1)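 Microarray of 15-residue peptides over residues 30-55 of Trypanosoma cruzi TSSAII, each with 1 to 10 substitutions at naturally variable positions, probed with one serum pool per country.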
# [2] = test system: pooled sera of chronic Chagas disease patients, Bolivia
# Description: as §1
# [3] = test system: pooled sera of chronic Chagas disease patients, Brazil
# Description: as §1
# [4] = test system: pooled sera of chronic Chagas disease patients, Colombia
# Description: as §1
# [5] = test system: pooled sera of chronic Chagas disease patients, Mexico
# Description: as §1
# [6] = test system: pooled sera of chronic Chagas disease patients, USA
# Description: as §1
# [7] = test system: pooled sera of uninfected people, Argentina
# Description: as §1
# [8] = test system: pooled sera of uninfected people, Bolivia
# Description: as §1
# [9] = test system: pooled sera of uninfected people, Brazil
# Description: as §1
# [10] = test system: pooled sera of uninfected people, Colombia
# Description: as §1
# [11] = test system: pooled sera of uninfected people, Mexico
# Description: as §1
# [12] = test system: pooled sera of uninfected people, USA
# Description: as §1
Sequence,antibody binding signal [1],antibody binding signal [2],antibody binding signal [3],antibody binding signal [4],antibody binding signal [5],antibody binding signal [6],antibody binding signal [7],antibody binding signal [8],antibody binding signal [9],antibody binding signal [10],antibody binding signal [11],antibody binding signal [12]
TEKKPAAGGTPSQSG,1030,172,367,5520,501,1860,180,184,2230,146,263,1200
SGKDKKTATGETPSQ,527,403,1880,605,479,4590,285,121,104,316,97,109
KEKKPAAGGTPSPPG,156,190,135,1550,142,505,89.8,98.2,561,89.7,72.2,341
TDNKTAAGETPSQPG,828,3220,31000,187,186,862,149,642,277,255,130,160
KKAATGGAPSPPGAS,519,226,298,634,523,711,343,252,126,301,73.6,276
KENKPATGETPSPPG,35400,28900,35300,281,720,25200,275,480,314,156,1470,1360
TDKKAAAGEAPSPPG,737,678,8420,375,281,11100,151,93.7,137,103,131,164
EKKTAAGETPSQPGA,616,687,25500,524,471,4110,164,1490,139,1180,186,1060
PPSGTDNKTATGEAP,33800,34900,44000,779,3260,22900,459,467,674,332,173,263
TPPSGTEKKAAAGET,28900,16000,25300,312,5480,3030,847,368,401,175,259,170
GKENKPATGGTPSQP,3310,572,15700,4300,5370,12900,677,480,258,176,521,132
KENKTAAGGAPSQPG,251,284,2270,2380,276,1100,225,109,385,105,100,160
TPPSGTENKTATGGT,50000,45900,50800,307,2240,19900,2460,554,1240,674,438,456
TDNKTATGEAPSQSG,15300,31500,24500,154,327,22900,190,302,241,169,158,119
TENKAATGGAPSPPG,34300,661,3400,577,673,2440,302,165,292,174,155,181
GTENKTAAGETPSQS,28400,1000,2030,2260,2930,2800,284,461,189,263,213,141
GKENKAATGETPSPP,10900,2530,26800,12100,10300,23900,460,243,105,168,170,849
TENKPAAGEAPSPPG,41700,1750,33700,324,409,14800,133,340,211,75.3,91.8,131
SGTDKKPATGGTPSQ,2230,1540,28600,12900,2730,1400,317,549,1120,430,1810,266
STPPSGKENKPAAGE,41800,43100,24900,376,12300,14500,2370,1850,515,1030,228,477
